Experimental data as given in article PMC9414507, “Drug Repurposing Based on Protozoan Proteome: In Vitro Evaluation of In Silico Screened Compounds against Toxoplasma gondii” (Pharmaceutics, 2022).

Tests used:
T. gondii tachyzoites [1] = test: microbe, parasite or virus in culture; conditions: Toxoplasma gondii, 72 h, read-out: EC50 (Half Effective Concentration against T. gondii tachyzoites)
T. gondii tachyzoites [2] = conditions: for anti-T. gondii activity (range in words): in vitro; for SI (Selectivity index): CC50 HFF cells/EC50 T. gondii ratio

SMILES	EC50 (T. gondii tachyzoites [1]) [µM]	anti-T. gondii activity (range in words) (T. gondii tachyzoites [2])	SI (Selectivity index) (T. gondii tachyzoites [2])
NC(=O)c1ncn([C@@H]2O[C@H](CO)[C@@H](O)[C@H]2O)n1 [Ribavirin]	83.3	micromolar range	–
COc1c(C)c2c(c(O)c1C/C=C(\C)CCC(=O)O)C(=O)OC2 [Mycophenolic acid]	8.06	micromolar range	–
C[C@H]1O[C@@H](O[C@H]2[C@@H](O)C[C@H](O[C@H]3[C@@H](O)C[C@H](O[C@H]4CC[C@@]5(C)[C@H](CC[C@@H]6[C@@H]5C[C@@H](O)[C@]5(C)[C@@H](C7=CC(=O)OC7)CC[C@]65O)C4)O[C@@H]3C)O[C@@H]2C)C[C@H](O)[C@@H]1O [Digoxin]	42.6	micromolar range	–
C[C@H]1O[C@@H](O[C@H]2[C@@H](O)C[C@H](O[C@H]3[C@@H](O)C[C@H](O[C@H]4CC[C@@]5(C)[C@H](CC[C@@H]6[C@@H]5CC[C@]5(C)[C@@H](C7=CC(=O)OC7)CC[C@]65O)C4)O[C@@H]3C)O[C@@H]2C)C[C@H](O)[C@@H]1O [Digitoxin]	5.66	micromolar range	–
CC(=O)O[C@H]1C[C@@]2(C)[C@@H](C[C@@H](O)[C@H]3[C@@]4(C)CC[C@@H](O)[C@@H](C)[C@@H]4CC[C@@]32C)/C1=C(\CCC=C(C)C)C(=O)O [Fusidic acid]	16.7	micromolar range	–
COc1cc(Cc2cnc(N)nc2N)cc(OC)c1OC [Trimethoprim]	7.36	micromolar range	–
CCCC(CCC)C(=O)O [Valproic acid]	99.6	micromolar range	–
C[C@H]1COc2c(N3CCN(C)CC3)c(F)cc3c(=O)c(C(=O)O)cn1c23 [Levofloxacin]	70.6	micromolar range	–
CCn1cc(C(=O)O)c(=O)c2cc(F)c(N3CCNC(C)C3)c(F)c21 (stereo not drawn) [Lomefloxacin]	7.32	micromolar range	–
CC(C)C[C@H](NC(=O)[C@H](Cc1ccccc1)NC(=O)c1cnccn1)B(O)O [Bortezomib]	0.223	nanomolar range	0.35
COc1cccc2c1C(=O)c1c(O)c3c(c(O)c1C2=O)C[C@@](O)(C(=O)CO)C[C@@H]3O[C@H]1C[C@H](N)[C@H](O)[C@H](C)O1 [Doxorubicin]	2.39	micromolar range	–
Nc1nc(F)nc2c1ncn2[C@@H]1O[C@H](CO)[C@@H](O)[C@@H]1O [Fludarabine]	0.75	nanomolar range	2.85
C=CCNc1nc(NCC=C)nc(N2CCN(C(c3ccc(F)cc3)c3ccc(F)cc3)CC2)n1 [Almitrine]	0.424	nanomolar range	>47
CCc1nc(N)nc(N)c1-c1ccc(Cl)cc1 [Pyrimethamine]	0.121	–	–
